Laboratory results from PubChem BioAssay AID504832 (National Center for Advancing Translational Sciences (NCATS), 2011).
The whole screen tested about 310,000 compounds, of which about 18,000 (5.8%) were called active. Inconclusive means that the source gave no clear call. Such entries were picked first, then a sample of the others. Calls follow the shape of the dose curve; as a rule, active = well fitted inhibition curve with a large enough effect; inconclusive = small, poorly fitted or top-dose-only effect, or another doubt; inactive = no such curve, though single readings can be large or run the other way. No potency is given beside an inconclusive call; the fits are too rough.

test: Primary qHTS for delayed death inhibitors of the malarial parasite plastid, 48 hour incubation; conditions: P. falciparum luciferase growth in erythrocytes; series mostly up to 28.7 µM; activity change, negative = inhibition: at the top concentration
How it was run: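 Luminescence readout; reporter = integrated firefly luciferase in P. falciparum. RBC culture at 2% hematocrit, 0.1% parasitemia final, 37 C/5% CO2; decreased signal taken as growth inhibition.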
% is scaled to controls: 0 for no effect and ±100 for the full control effect; potency is read from the fitted curve at half-maximal effect; tags tell the direction and shape of the fitted curve.

Structure (SMILES)	Potency	activity change, negative = inhibition
COCCN(C(=S)Nc1ccccc1C)C(C)c1cccnc1 (stereo unspecified)	inconclusive [inhibitor, single point]	
CC1CCN(C(=O)CCc2nc3cc(S(=O)(=O)N(C)C)ccc3n2C)CC1	inconclusive [inhibitor, full curve, poor fit]	
Cc1ccc(N2C(=O)CN(Cc3cccs3)C2=S)cc1C		inactive: -12.8%
COc1ccc(C)cc1N(CC(=O)N1CCCCCC1)S(=O)(=O)c1ccc(C)cc1	inconclusive [inhibitor, partial curve]	
CCCCNC(=O)C1CCC(CNS(=O)(=O)c2ccc(C)cc2)CC1 (stereo unspecified)		inactive: -15.6%
CCn1c(=O)c([N+](=O)[O-])c(NCc2ccco2)c2ccccc21		inactive: -1.13%
Cn1c(Cn2c3ccccc3c3ccccc32)n[nH]c1=S	inconclusive [inhibitor, full curve, poor fit]	
CCCc1[nH]n(-c2ccc(F)cc2)c(=O)c1C=NCC1CCCO1 (stereo unspecified)	inconclusive [inhibitor, partial curve, poor fit]	
COc1cccc(N2CCN(CC(=O)Nc3ccccc3C(=O)NCc3ccccc3)CC2)c1	active: 9.28 µM	
CSc1nc2cc(C)nn2c(-c2ccc(C(C)(C)C)cc2)c1C#N	inconclusive [inhibitor, single point]	
COc1ccc(C(NC(=O)C(C)C)c2c(O)ccc3ccccc23)cc1 (stereo unspecified)	inconclusive [inhibitor, single point]	
N#Cc1cc(C(=O)c2ccccc2O)cn(-c2ccc(Cl)cc2)c1=O	inconclusive [inhibitor, single point]	
O=P(O)(O)OP(=O)(O)OP(=O)(O)O		inactive: 4.18%
CC(C)Oc1ncnc2c1[nH]c1ccccc12	inconclusive [inhibitor, partial curve, poor fit]	
O=C(NNc1cccc(Cl)n1)C(F)(F)F	active: 11.7 µM	
C/C(=N/NC(N)=S)c1cc2ccc(O)cc2oc1=O	inconclusive [inhibitor, full curve, poor fit]	
CN(Cc1ccccc1)Cc1nc2c(c(=O)n(C)c(=O)n2C)n1Cc1ccc(Cl)cc1		inactive: -26.4%
COc1ccc2[nH]c3c(=O)n(CCCC(=O)NC4CCC(C)CC4)c(=S)[nH]c3c2c1 (stereo unspecified)		inactive: 18.7%
CCOC(=O)c1c(C)nc2c(c1-c1ccc(Cl)cc1)C(=O)CC(C)(C)C2	inconclusive [inhibitor, single point]	
CC(=O)c1ccc(NC(=O)Nc2ccc3c(c2)nc(C)n3C)cc1	inconclusive [inhibitor, single point]	
Cc1ccc2c(C)c(C(=O)N3CCC(N4CCC(C(=O)NC5CC5)CC4)CC3)oc2c1	inconclusive [inhibitor, single point]	
Cc1csc(SCC(=O)Nc2nc3ccccc3s2)n1		inactive: 68.7%
CN(Cc1ccc(C(C)(C)C)cc1)C(=O)C1CSC2(C)CCC(=O)N12 (stereo unspecified)	inconclusive [inhibitor, single point]	
Cc1cccc(NC(=S)/N=C(\N)Nc2nc(C)c3cc(C)ccc3n2)c1	inconclusive [inhibitor, partial curve]	

Structure (SMILES)	Potency	activity change, negative = inhibition
CCCCCCOc1ccc(N2C(=O)CC(N3CCN(CCN=CC4=C(O)CC(C)(C)CC4=O)CC3)C2=O)cc1 (stereo unspecified)	inconclusive [inhibitor, partial curve, poor fit]	
CCc1cc(=O)oc2cc(C)cc(OC(C)C(=O)NC3CCN(Cc4ccccc4)CC3)c12 (stereo unspecified)	inconclusive [inhibitor, partial curve]	
Cc1cc(N2CCN(C)CC2)n2nc(-c3ccc(Cl)cc3)nc2n1	inconclusive [inhibitor, single point]	
COc1cc(NC(=O)CN2c3ccccc3CC2C)cc(OC)c1OC (stereo unspecified)	inconclusive [inhibitor, partial curve, poor fit]	
CC(C)CN1CCN(Cc2ccc3ncccc3c2)CC1CCO (stereo unspecified)		inactive: -3.54%
CC(=O)c1ccc(OCCCC(=O)N2CCN(S(=O)(=O)c3ccc(C(C)C)cc3)CC2)cc1	active: 9.28 µM	
CC(C)(C)[C@H]1CCC(=O)N([C@H](CSc2ccc(Br)cc2)Cc2ccccc2)CC1	inconclusive [inhibitor, single point]	
Cc1cccc(Nc2nnc(SCC(=O)N(C)C3CCS(=O)(=O)C3)s2)c1C (stereo unspecified)	inconclusive [inhibitor, partial curve, poor fit]	
CCOc1ccc(-n2cnc3sc4c(c3c2=O)CCCC4)cc1		inactive: 10.6%
COc1ccccc1-c1nnc2sc(-c3ccc(N(C)C)cc3)nn12	inconclusive [inhibitor, single point]	
COc1ccc(N(CC(=O)Nc2cccnc2)S(=O)(=O)c2ccc(C)cc2)cc1Cl	inconclusive [inhibitor, partial curve, poor fit]	
CC(C)C(=O)N1CCN(c2ccccc2NC(=O)COc2ccccc2)CC1	inconclusive [inhibitor, single point]	
CC(Oc1ccc(F)cc1)c1nnc(SCC(=O)N(c2ccccc2)C2CCS(=O)(=O)C2)o1 (stereo unspecified)	inconclusive [inhibitor, partial curve, poor fit]	
O=C(O)COc1ccc2nsnc2c1Cl		inactive: 15.3%
CCOC(=O)CSc1nc(C(C)(C)C)cc(C(F)(F)F)c1C#N		inactive: 7.03%
COc1cc(CCC(=O)OCC(=O)Nc2sccc2C(N)=O)cc(OC)c1OC		inactive: 0%
CC(C)(C)OC(=O)NCCc1nnc(SCc2ccccc2Cl)o1	inconclusive [inhibitor, single point]	
CCOC(=O)c1c(-c2ccc(C)cc2)csc1NC(=S)NC(=O)c1ccccc1	active: 10.4 µM	
CN(C)CCNC(=O)C(=O)NCC1CCCN1S(=O)(=O)c1cccs1 (stereo unspecified)		inactive: 12.5%
CCOc1ccc(NC(=O)C2CCC(N3C(=O)C4CC=CCC4C3=O)CC2)cc1 (stereo unspecified)	inconclusive [inhibitor, single point]	
CCn1cc(CCC(=O)NCCN2CCOCC2)c2ccccc21		inactive: 39.3%
O=C(Nc1ccon1)c1nc[nH]c1C(=O)NCc1ccccc1	inconclusive [inhibitor, partial curve, poor fit]	
O=c1[nH]nc(SCCS(=O)(=O)c2ccc(F)cc2)n1-c1ccccc1	inconclusive [inhibitor, single point]	
CCCCOC(=O)C1[C@H]2C(=O)N(CCc3ccccc3)C[C@]23C=C[C@H]1O3 (stereo partly specified)	inconclusive [inhibitor, single point]	

Structure (SMILES)	Potency	activity change, negative = inhibition
Cc1ccc2nc(C3CCN(S(=O)(=O)c4ccc5ccccc5c4)CC3)[nH]c2c1	inconclusive [inhibitor, single point]	
CCOC(=O)c1cnn(Cc2ccc(C)cc2)c1N		inactive: -11.2%
CCNC(=O)c1ccc2c(c1)C1C3CCC(C3)C1C(c1ccccc1)N2 (stereo unspecified)	active: 7.38 µM	
CCCCCCNC(=O)N[C@@H](Cc1ccc(O)cc1)C(=O)NCCC[C@H]1CN2C(=NC[C@H]2C)N1CC1CCC1	active: 9.28 µM	
Brc1ccc(C2=CSC3=NCCN23)cc1	inconclusive [inhibitor, single point]	
Cc1ccc(-c2nn(CCC(=O)O)cc2/C=C\C(=O)c2ccc(Br)cc2)cc1	inconclusive [inhibitor, single point]	
CCCCC(=O)Nc1nnc(SCC(=O)NCC2CCCO2)s1 (stereo unspecified)		inactive: 8.98%
O=S(=O)(c1ccc(NC(=S)N/N=C/c2ccc(O)c(O)c2)cc1)N1CCOCC1	active: 14.7 µM	
COc1cc(NC(=S)Nc2ccccn2)cc(OC)c1	inconclusive [inhibitor, single point]	
O=C(/C(N=Nc1cccc(C(F)(F)F)c1)=C(/O)c1cccs1)C(F)(F)F	inconclusive [inhibitor, partial curve, poor fit]	
NC(=O)NS(=O)(=O)c1ccc(N)cc1		inactive: -3.77%
COc1ccccc1N1CCN(CCCC(=O)c2ccc(F)cc2)CC1		inactive: 1.06%
CN(CCOc1ccc(Cl)cc1)C(=O)CN1C(=O)NC2(CCCCC2)C1=O	inconclusive [inhibitor, single point]	
O=C(COc1ccc2oc(-c3ccco3)cc(=O)c2c1)N1CCCCC1	inconclusive [inhibitor, single point]	
CS(=O)(=O)N(CC(=O)Nc1ccccc1C(=O)NCc1ccco1)c1ccccc1F		inactive: -27.7%
O=C(Cn1nc(CNc2ccc(Cl)cc2)[n+]2c1CCCCC2)c1ccc(Br)cc1	active: 0.928 µM	
Cc1ccc(-n2cc(CN3CCN(Cc4nccn4C)CC3)c(-c3cccc(C)c3)n2)cc1	inconclusive [inhibitor, partial curve]	
COc1ccc(OC)c(NC(=O)COC(=O)c2ccc(OC)c(S(=O)(=O)N3CCOCC3)c2)c1	inconclusive [inhibitor, single point]	
C(=N\Nc1ncnc2sc3c(c12)CCC3)/c1ccncc1	inconclusive [inhibitor, single point]	
CC(C)(C)c1nnc2sc(SCC(=O)c3ccc(Cl)cc3)nn2c1=O	inconclusive [inhibitor, partial curve, poor fit]	
O=C(CSc1nnc(-c2ccco2)o1)c1ccc(F)c(F)c1		inactive: 6.41%
NC(=O)c1ccsc1NC(=O)COC(=O)Cc1ccccc1		inactive: -14.7%
O=C(c1ccco1)N1CCN(C2CC(=O)N(c3ccc(C(F)(F)F)cc3)C2=O)CC1 (stereo unspecified)		inactive: -5.42%
